Screen size: about 270,000 compounds; about 20 (0.007%) were called active. Inconclusive means that the source gave no clear call. Such entries were picked first, then a sample of the others. Calls come from the whole dose curve; as a rule, active = well fitted inhibition curve with a large enough effect; inconclusive = small, poorly fitted or top-dose-only effect, or effect the other way; inactive = flat fitted curve, though single readings scatter. Where the call is inconclusive, the potency comes from a doubtful curve fit.
Each molecule was assayed against Galactokinase (Homo sapiens) (UniProt P51570) (assay: qHTS Assay for Inhibitors of Human Galactokinase (GALK)). Settings: Purified GALK, Kinase-Glo residual ATP luminescence; series mostly up to 57.5 µM; activity change, negative = inhibition: at the top concentration.
Chain of UniProt P51570 (P51570 whole entry, looked up): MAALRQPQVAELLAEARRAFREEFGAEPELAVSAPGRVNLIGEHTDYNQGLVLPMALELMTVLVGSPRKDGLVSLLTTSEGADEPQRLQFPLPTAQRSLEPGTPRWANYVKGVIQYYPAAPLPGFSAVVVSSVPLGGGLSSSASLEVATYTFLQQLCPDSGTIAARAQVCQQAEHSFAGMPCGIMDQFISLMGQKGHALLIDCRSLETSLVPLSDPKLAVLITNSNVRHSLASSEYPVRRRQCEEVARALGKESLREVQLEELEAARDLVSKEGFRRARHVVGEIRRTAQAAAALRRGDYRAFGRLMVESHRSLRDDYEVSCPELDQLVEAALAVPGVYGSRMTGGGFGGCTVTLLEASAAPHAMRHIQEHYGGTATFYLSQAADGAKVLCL
Source text: NIH Molecular Libraries Probe Production Centers Network [MLPCN] NIH Chemical Genomics Center [NCGC] MLPCN Grant: R03 MH085689-01 Assay Submitter (PI): Kent Lai (University of Utah School of Medicine, 50 N Mario Capecchi Drive, Salt Lake City, UT 84132) NCGC Assay Overview: Inherited deficiency of galactose-1-phosphate uridyltransferase (GALT) can result in a potentially lethal disorder called Classic Galactosemia (OMIM 230400). Several lines of evidence indicate that an elevated level of galactose-1-phosphate (gal-1-p), the product of galactokinase (GALK), is a major, if not sole, pathogenic mechanism in patients with classic galactosemia. Therefore, finding inhibitors of GALK is a potential novel therapy for this inherent metabolic disease and is the long term goal of this project. GALK (provided by the assay submitter) was assayed using ATP and D-(+)-Galactose (Sigma-Aldrich cat# G0750) as substrates. Promega Kinase-Glo Plus (cat# V3774) technology was used to detect the residual ATP following kinetic reaction. Briefly, the Kinase-Glo Plus contains Ultra-Glo [2] luciferase and D-luciferin which generates a bioluminescence signal from the remaining ATP.
NCGC Assay Protocol Summary: Three uL/well of ATP-buffer solution (35 uM ATP, 20mM HEPES pH8.0, 5 mM MgCl2, 60 mM NaCl, 1 mM DTT, 0.01% BSA final concentration) was dispensed into 1536-well, assay plates (Greiner, solid white medium-binding plates) with Aurora Discovery BioRAPTR Flying Reagent Dispenser (FRD; Beckton-Dickenson). Compound solution (23 nL) was transferred to the assay plate using the Kalypsys 1536-pin tool. One uL/well GALK-galactose solution (5 nM GALK, 100 uM galactose, 20 mM HEPES pH8.0, 5 mM MgCl2, 60 mM NaCl, 1 mM DTT, 0.01% BSA final concentration) was then added using the FRD yielding a total kinase reaction volume of 4 uL/ well. After 1 hour of room temperature incubation, 4 uL Kinase-Glo Plus reagent was added for a final assay volume of 8 uL/ well. Luminescence was detected with the ViewLux plate reader (Perkin Elmer, Waltham, MA) after 10 min incubation using a 1 sec exposure time and 2x binning.
In the case of COC(=O)c1nc(-c2ccc3c(n2)C(=O)C(N)=C(OC)C3=O)c(N)c(-c2ccc(OC)c(OC)c2O)c1C, the Potency is reported as inconclusive: 15.8 µM [falling, partial curve]. For CN1C(=O)C(=Cc2ccccc2OS(=O)(=O)c2ccccc2)C(=O)N(C)C1=O, the “activity change, negative = inhibition” value was inactive: 1.35%. With O=C1C(=O)c2ccccc2-c2ccccc21 the Potency was active: 3.16 µM. For Cc1nc2c(=O)n(C)c(=O)nc-2n(C)n1, the Potency was inconclusive: 1.41 µM [falling, full curve]. Cn1ncnc2c(=O)n(C)c(=O)nc1-2 was tested, and the Potency was active: 1.26 µM. For COCCCn1c(N)c(C(=O)NCc2ccco2)c2nc3ccccc3nc21, the Potency was inconclusive: 31.6 µM [falling, single point]. For O=C(O)CC1OCC=C2CN3CCC45C6=CC(=O)C(=O)C([N+](=O)[O-])=C6NC4C1C2CC35 (stereo unspecified), the Potency was active: 10 µM. In the case of Cc1ccccc1N1C(=O)/C(=C/c2ccco2)C(=O)NC1=S, the Potency is reported as inconclusive: 31.6 µM [falling, single point]. CCn1nc(-c2cccs2)nc2c(=O)n(C)c(=O)nc1-2 was tested, and the Potency was active: 1.26 µM. In the case of O=c1oc2ccccc2c(O)c1C(c1ccc([N+](=O)[O-])cc1)c1c(O)c2ccccc2oc1=O, the Potency is reported as inconclusive: 35.5 µM [falling, single point]. With Cc1cc2c(C(C)C)c(O)c(O)c(C=O)c2c(O)c1-c1c(C)cc2c(C(C)C)c(O)c(O)c(C=O)c2c1O the Potency was inconclusive: 39.8 µM [falling, single point]. CN1C(=O)C(=Cc2sc(=O)n(-c3ccccc3)c2N2CCCCC2)C(=O)N(C)C1=O was tested, and the “activity change, negative = inhibition” value was inactive: -0.0358%. With COc1ccccc1CN1CCN(C(=O)COc2cccc(C)c2)CC1 the “activity change, negative = inhibition” value was inactive: -0.944%. For O=C1NC(=S)N(Cc2ccco2)C(=O)/C1=C\c1cccs1, the Potency was inconclusive: 25.1 µM [falling, single point]. CCn1nc(-c2ccccc2)nc2c(=O)n(C)c(=O)nc1-2 was tested, and the Potency was active: 0.891 µM. With CC1=CC2/C=C(\C)CCC(O)C(O)/C=C/C(=O)C23C(=O)NC(CC(C)C)C3C1C (stereo unspecified) the “activity change, negative = inhibition” value was inactive: -5.85%.
% is set by controls: 0 for no effect and ±100 for the full control effect; potency is the fitted concentration of half-maximal effect; tags give direction and shape of the fitted curve.
